Experimental findings from paper PMC4960310 are described below.

Protein sequences, listed by entry. Tags and fused reporters are not part of them. Residues count along the entry.
UniProt Q61686: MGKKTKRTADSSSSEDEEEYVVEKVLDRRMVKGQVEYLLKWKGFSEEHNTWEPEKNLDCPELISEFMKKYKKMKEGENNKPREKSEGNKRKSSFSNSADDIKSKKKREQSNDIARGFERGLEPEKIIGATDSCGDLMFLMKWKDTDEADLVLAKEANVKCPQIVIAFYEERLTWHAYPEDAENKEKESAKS
UniProt P63279: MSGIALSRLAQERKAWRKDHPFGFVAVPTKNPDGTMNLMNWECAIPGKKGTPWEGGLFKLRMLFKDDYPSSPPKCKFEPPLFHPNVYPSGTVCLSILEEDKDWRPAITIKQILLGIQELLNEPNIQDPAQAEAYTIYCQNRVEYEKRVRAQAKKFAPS
UniProt P63165, residues 1-97: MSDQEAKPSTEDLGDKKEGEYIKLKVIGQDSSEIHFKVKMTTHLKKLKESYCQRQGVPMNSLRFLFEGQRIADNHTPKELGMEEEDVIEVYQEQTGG

Like-named read-outs stand apart in the source and are kept apart here. These are yes or no findings as the source states them, for the method shown. For some assays here: In cells and extracts the contact can be indirect. Some results given as binding are weak or reduced against the parent protein; the word gives no strength. For some assays here: Sequences can lack the tags named with a protein.

Assay [1] deals with T1, His-Suv39h1-1-167 (mouse) (UniProt O54864).
T1 sequence: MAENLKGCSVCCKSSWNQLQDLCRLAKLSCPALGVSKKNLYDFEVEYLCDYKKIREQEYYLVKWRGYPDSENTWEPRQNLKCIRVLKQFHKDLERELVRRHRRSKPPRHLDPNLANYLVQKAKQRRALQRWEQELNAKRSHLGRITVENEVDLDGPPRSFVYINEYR
Briefly: far-Western, overlay or dot blot; lysates of E. coli expressing His-Suv39h1 full-length and truncation fragments resolved by SDS-PAGE, transferred to nitrocellulose, denatured/renatured and incubated with purified recombinant GST fusion protein; bound protein detected with anti-GST; only the binder purified.

For assay [2], the target named is T2, His-Suv39h1-1-114 (mouse) (UniProt O54864).
T2 sequence: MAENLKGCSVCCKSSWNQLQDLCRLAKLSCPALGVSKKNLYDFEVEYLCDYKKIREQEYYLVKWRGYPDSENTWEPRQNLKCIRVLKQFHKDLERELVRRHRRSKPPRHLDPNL
Described as above.

Assay [3] has as its target T3, His-Suv39h1 full-length (WT) (mouse) (UniProt O54864).
T3 sequence: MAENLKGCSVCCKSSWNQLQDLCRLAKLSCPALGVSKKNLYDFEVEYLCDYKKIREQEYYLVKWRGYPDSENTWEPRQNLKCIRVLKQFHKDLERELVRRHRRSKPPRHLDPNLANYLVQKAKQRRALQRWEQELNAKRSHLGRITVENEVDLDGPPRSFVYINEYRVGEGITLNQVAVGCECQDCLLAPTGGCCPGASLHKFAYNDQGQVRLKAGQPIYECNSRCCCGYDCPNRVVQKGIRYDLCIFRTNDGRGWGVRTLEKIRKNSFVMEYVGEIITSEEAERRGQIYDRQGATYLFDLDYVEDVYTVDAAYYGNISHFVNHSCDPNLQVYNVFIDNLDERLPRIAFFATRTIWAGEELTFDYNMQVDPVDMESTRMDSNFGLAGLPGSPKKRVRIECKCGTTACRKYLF
The assay is described as above.

The target of assay [4] is T4, GST-Suv39h1-1-167 (mouse) (UniProt O54864).
T4 sequence: T1 sequence
As to the kind of experiment: AlphaScreen or HTRF; saturation binding; fixed concentrations of GST-Suv39h1 truncated versions with variable His-HP1α; 2 h at room temperature; 20 mM Tris pH 7.5, 100 mM NaCl, 2 mM MgCl2, 1 mM DTT, 0.05% BSA, 0.1% Tween; Nickel-Chelate acceptor and Glutathione donor beads; both purified. (Bead proximity is the source of the signal in Alpha formats.)

Assay [5] addresses T5, GST-Suv39h1-1-114 (mouse) (UniProt O54864).
T5 sequence: T2 sequence
The description is as above.

The target of assay [6] is HP1α-HA (UniProt Q61686). Briefly: co-IP; anti-HA agarose beads on total cell extracts of NIH3T3 cells transfected with HP1α-HA, GFP-SUMO-1 and Myc-Suv39h constructs; 2 h at 4 °C; lysis buffer with 150 mM NaCl, 1% Nonidet P-40, 0.75% sodium deoxycholate, 20 mM N-ethylmaleimide; western blot with anti-Myc. Background: In western blotting, separated proteins are transferred to a membrane and probed.

Assay [7] addresses T6, TALE-Suv39h1-1-114-HA (mouse) (UniProt O54864).
T6 sequence: T2 sequence
As to the kind of experiment: co-IP; anti-HA immunoprecipitation of TALE-Suv39h1-HA constructs from total cell extracts; endogenous HP1α detected.

Assay [8] has as its target T7, TALE-Suv39h1-1-167-HA (mouse) (UniProt O54864).
T7 sequence: T1 sequence
The assay is described as above.

The target in assay [9] is HP1α-HA (UniProt Q61686). Briefly: co-IP; anti-HA agarose beads on total cell extracts of NIH3T3 cells transfected with HP1α-HA, GFP-SUMO-1 and Myc-Suv39h constructs; 2 h at 4 °C; lysis buffer with 150 mM NaCl, 1% Nonidet P-40, 0.75% sodium deoxycholate, 20 mM N-ethylmaleimide; western blot with anti-Myc. The source holds these as a separate data set.
The target of assay [10] is GST-Ubc9 (UniProt P63279). As to the kind of experiment: pull-down; GST-Ubc9 on Glutathione Sepharose 4B mixed with total extract of NIH3T3 cells expressing Myc-Suv39h1; 2 h at 4 °C; 20 mM Tris-HCl pH 8, 200 mM NaCl, 2 mM EDTA, 0.5% Nonidet P-40; five washes; only the target purified.

Take GST-HP1α (from UniProt Q61686 1-191): the binding entry in [1] and in [2] was “binds” throughout. Regarding GST-SUMO-1 (from UniProt P63165 1-97), in assay [3], the binding result is “binds”. Consider “GST-Ubc9 (from UniProt P63279 1-158) (enzyme)”, for which the binding result in assay [1] is reported as “binds”; in assay [2] it was “no binding”; in assay [3], “binds”.

Turning to His-HP1α (from UniProt Q61686 1-191), the binding entry in assay [4] and in assay [5] was “binds” each time. Turning to “Myc-Suv39h2-ΔN82 (from UniProt Q9EQQ0 83-477) (domain or fragment)”, the binding result in assay [6] is “binds”. In the case of “endogenous HP1α (from UniProt Q61686 1-191)”, the binding result in [7] and in [8] was “binds” in each case.

B1: Myc-Suv39h1 full-length (protein, UniProt O54864 1-412)
chain: T3 sequence
Consider B1, for which the binding result in assay [9] and in assay [10] was “binds” throughout.

B2: Myc-Suv39h1+h2N82 (protein, UniProt Q9EQQ0 1-82; O54864 1-412)
chain: MATARAKARGSEAGARCHRAPGPPPRPKARRTARRRRAETLTARRSRPSAGERRAGSQRAWSGAPRAAVFGDECARGALFKAMAENLKGCSVCCKSSWNQLQDLCRLAKLSCPALGVSKKNLYDFEVEYLCDYKKIREQEYYLVKWRGYPDSENTWEPRQNLKCIRVLKQFHKDLERELVRRHRRSKPPRHLDPNLANYLVQKAKQRRALQRWEQELNAKRSHLGRITVENEVDLDGPPRSFVYINEYRVGEGITLNQVAVGCECQDCLLAPTGGCCPGASLHKFAYNDQGQVRLKAGQPIYECNSRCCCGYDCPNRVVQKGIRYDLCIFRTNDGRGWGVRTLEKIRKNSFVMEYVGEIITSEEAERRGQIYDRQGATYLFDLDYVEDVYTVDAAYYGNISHFVNHSCDPNLQVYNVFIDNLDERLPRIAFFATRTIWAGEELTFDYNMQVDPVDMESTRMDSNFGLAGLPGSPKKRVRIECKCGTTACRKYLF
For the molecule B2, the binding entry in assay [9] is given as “binds”.
